# The whole screen tested about 270,000 compounds, of which about 5,800 (2.1%) were called active. The shares of active, inactive and inconclusive entries below differ from those in the screen. The call rests on the fitted dose curve; in most records, active means well fitted inhibition curve with a large enough effect; inconclusive means small, poorly fitted or top-dose-only effect; inactive means flat fitted curve, though single readings scatter. Potencies of inconclusive entries are doubtful fits and often do not repeat.
# Molecular target: Microtubule-associated protein tau (Homo sapiens) (UniProt P10636)
# Sequence of UniProt P10636 (P10636 whole entry, looked up): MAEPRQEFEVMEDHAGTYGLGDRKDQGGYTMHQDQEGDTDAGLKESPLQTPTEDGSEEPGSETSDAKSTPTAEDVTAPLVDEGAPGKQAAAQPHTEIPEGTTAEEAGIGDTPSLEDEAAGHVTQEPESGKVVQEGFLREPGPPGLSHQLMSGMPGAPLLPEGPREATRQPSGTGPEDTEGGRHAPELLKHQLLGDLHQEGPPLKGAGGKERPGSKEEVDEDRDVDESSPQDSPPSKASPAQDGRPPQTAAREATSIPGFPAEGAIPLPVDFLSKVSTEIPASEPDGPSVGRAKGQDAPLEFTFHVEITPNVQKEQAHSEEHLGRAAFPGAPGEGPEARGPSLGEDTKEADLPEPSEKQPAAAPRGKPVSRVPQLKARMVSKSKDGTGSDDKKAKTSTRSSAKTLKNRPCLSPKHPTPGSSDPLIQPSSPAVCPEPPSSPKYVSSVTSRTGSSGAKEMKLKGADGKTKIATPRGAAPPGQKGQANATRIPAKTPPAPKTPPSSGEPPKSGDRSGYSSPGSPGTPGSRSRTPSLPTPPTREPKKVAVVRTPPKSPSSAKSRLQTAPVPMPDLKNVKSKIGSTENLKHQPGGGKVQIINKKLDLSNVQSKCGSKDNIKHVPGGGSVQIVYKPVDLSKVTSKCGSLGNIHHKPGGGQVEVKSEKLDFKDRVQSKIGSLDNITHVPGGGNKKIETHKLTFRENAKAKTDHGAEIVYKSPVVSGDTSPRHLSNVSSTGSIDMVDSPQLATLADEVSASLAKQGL
# Assay: qHTS for Inhibitors of Tau Fibril Formation, Thioflavin T Binding; further: nearly all actives have a fitted effect of over 55% in size
# Settings: recombinant tau K18 P301L (four-repeat tau fragment), heparin-induced fibrillization, ThT fluorescence; series mostly up to 57.4 µM; activity, negative = inhibition: at the top concentration
# Summary of the method: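 Aggregation was driven by heparin (20 uM final) acting on recombinant tau […] bearing P301L in 100 mM sodium acetate pH 7; fibrils were detected with Thioflavin T.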
# On the % scale 0 is the no-effect control and ±100 the full control effect; potency means the concentration at half of the fitted maximal effect; tags describe the fitted curve by direction and shape.
SMILES,"activity, negative = inhibition",Potency
Cc1cc(=O)c2n(Cc3ccc(Cl)cc3)nc[n+]2[nH]1,inactive: 2.92%,–
CC(=O)c1sc2nc(CSc3nnnn3-c3ccccc3)[nH]c(=O)c2c1C,–,"inconclusive: 12.6 µM [inhibitor, partial curve]"
CN(CC(=O)NCc1ccccc1)S(=O)(=O)c1ccc2[nH]c3c(c2c1)CCCC3,inactive: -5.17%,–
Cc1cccc(C(=O)NC(=S)NNC(=O)c2ccccc2Cl)c1,–,"inconclusive: 1.41 µM [inhibitor, full curve, poor fit]"
O=C(C#Cc1ccccc1)c1ccc([N+](=O)[O-])cc1,–,"inconclusive: 10 µM [inhibitor, partial curve]"
CCN(CC)C(=O)C1CCCN(c2ccc([N+](=O)[O-])cc2/C=N/NC(=O)c2ccccc2)C1 (stereo not drawn),–,"inconclusive: 12.6 µM [inhibitor, partial curve]"
CCCc1cc(C(=O)Nc2c(C)nn(Cc3c(Cl)cccc3Cl)c2C)no1,inactive: -10.9%,–
CCN1C(=O)/C(=C/c2nc3ccccc3c(=O)n2-c2ccc(C)cc2)c2ccccc21,–,"inconclusive: 14.1 µM [inhibitor, partial curve]"
CCc1ccc(-c2nn(CC(=O)NCc3ccccc3)c3c2cnc2ccc(F)cc23)cc1,inactive: 7.31%,–
Cc1c(Cl)cccc1NCC(=O)Nc1ccc(Cl)cc1F,–,"inconclusive: 35.5 µM [inhibitor, single point]"
Oc1ccc(N=Nc2cccc(C(F)(F)F)c2)cc1C=Nc1ccc(N2CCOCC2)cc1,–,"inconclusive: 3.16 µM [inhibitor, full curve]"
CSc1nnc(C)c(/C=C/NOCc2ccc(Cl)cc2)n1,–,"inconclusive: 31.6 µM [inhibitor, single point]"
CCc1ccc(N2C(=O)c3sc4nnc(-c5ccccc5)c(=O)n4c3C2=O)cc1,–,"inconclusive: 20 µM [inhibitor, partial curve, poor fit]"
COc1cc(NC(=O)c2cc(C(C)C)on2)c(OC)cc1Cl,–,"inconclusive: 15.8 µM [inhibitor, partial curve]"
O=C(Oc1ccccc1N1CCOCC1)c1ccccc1,inactive: 1.28%,–
COc1ccc2c(c1)c1nc3ccccc3nc1n2CCCN1C(=O)c2ccccc2C1=O,–,"inconclusive: 4.47 µM [inhibitor, partial curve, poor fit]"
C#CCOc1c(Br)cc(/C=N\NC(=O)CN2CCOCC2)cc1OCC,inactive: -12.9%,–
COc1ccc2nc3cccc(OC)c3nc2c1,–,active: 15.8 µM
COc1cccc(/C(C)=N/Nc2ncc(Cl)cc2Cl)c1,–,"inconclusive: 7.08 µM [inhibitor, partial curve]"
CCN(CC)C(=O)c1ccc(Nc2nnc(C)c3ccccc23)cc1,inactive: -17.7%,–
Cc1ccc(Nc2nc(N)c([N+](=O)[O-])c(NCc3ccccc3)n2)cc1,–,"inconclusive: 6.31 µM [inhibitor, full curve]"
CCN(CC)C(=O)c1sc2c(c1C)c(=O)n(-c1ccc(OC)cc1OC)c(=O)n2CC(=O)c1ccc(Cl)cc1,–,"inconclusive: 1.12 µM [activator, full curve, poor fit]"

SMILES,"activity, negative = inhibition",Potency
S=C(NCc1ccncc1)Nc1ccc(Cl)cc1Cl,inactive: 0.725%,–
COc1ccc(OCc2nnc3n2N=C(c2ccc(C)cc2)CS3)cc1,–,"inconclusive: 28.2 µM [inhibitor, partial curve, poor fit]"
O=c1ccc(/C=C/c2ccccc2)nn1Cc1ccccc1Cl,–,"inconclusive: 20 µM [inhibitor, partial curve]"
COc1cc(NC(=O)COCc2cc(-c3ccc4c(c3)OCO4)on2)cc(OC)c1,–,"inconclusive: 2 µM [inhibitor, partial curve]"
CN(C)c1ccc(/C=C(\C#N)c2nc(-c3ccc(Cl)c(Cl)c3)cs2)cc1,–,"inconclusive: 3.98 µM [inhibitor, full curve]"
CC(OC(=O)c1ccc2ccccc2n1)C(=O)Nc1ccc(N2CCOCC2)cc1 (stereo not drawn),–,"inconclusive: 44.7 µM [inhibitor, single point]"
CC1(C)OC(=O)C(=CNc2ccccc2F)C(=O)O1,inactive: -2.89%,–
COC(=O)C/C(C)=N/Nc1ccc(S(=O)(=O)N2CCCC2)cc1[N+](=O)[O-],–,"inconclusive: 20 µM [inhibitor, single point]"
CC(C)c1cccc2c([Si](C)(C)C)c3c(nc12)-c1cccc(=O)n1C3,–,"inconclusive: 25.1 µM [inhibitor, partial curve]"
COc1cc(Cl)ccc1NC(=O)COc1ccccc1C(=O)N1CCN(c2ccc(O)cc2)CC1,–,"inconclusive: 17.8 µM [inhibitor, single point]"
O=[N+]([O-])c1cccc(Cl)c1NCCNS(=O)(=O)c1ccc(Cl)cc1,–,"inconclusive: 17.8 µM [inhibitor, partial curve]"
Cc1ccc2oc(=O)c3cc(C(=O)Nc4cc(-c5cccc(F)c5)no4)sc3c2c1,inactive: -6.16%,–
Cc1nn(Cc2ccc(Cl)cc2)c(C)c1NC(=O)CSc1n[nH]c(C)c1[N+](=O)[O-],–,"inconclusive: 12.6 µM [inhibitor, partial curve]"
Cc1cc([N+](=O)[O-])nn1CC(=O)Nc1cccc2nonc12,–,"inconclusive: 17.8 µM [inhibitor, partial curve]"
COCCCNC(=S)N1CCN(c2nc3ccccc3s2)CC1,–,"inconclusive: 0.891 µM [inhibitor, full curve]"
O=C(NCCc1nc2ccccc2n1Cc1ccc(Cl)cc1Cl)c1ccco1,–,"inconclusive: 3.55 µM [inhibitor, partial curve]"
Cc1ccc(-c2noc(-c3ccccc3NC(=O)C3CC(=O)N(c4ccccc4C)C3)n2)cc1 (stereo not drawn),–,"inconclusive: 11.2 µM [inhibitor, partial curve]"
CCOC(=O)c1c(NC(=O)c2ccc(Br)o2)sc(C)c1CC,–,"inconclusive: 39.8 µM [inhibitor, single point]"
CCc1nn(CC(=O)Nc2ccc(N(CC)CC)cc2C)c(=O)c2cc3sccc3n12,inactive: -14.5%,–
N#Cc1ccc(C(=O)Nc2ccc3c(c2)N(C2CCCC2)C(=O)c2ccccc2S3)cc1,inactive: 3.13%,–
Cc1cc(C)c2c(N)c(C(=O)NN)sc2n1,–,"inconclusive: 14.1 µM [inhibitor, partial curve]"
